Test results from the BET-seq Pho4 binding data (Le et al. 2018).
The other results are listed elsewhere or left out. These are noisy estimates, calculated here from bound and input reads.

Biological target: T1, Pho4 (S. cerevisiae) (UniProt P07270)
T1 sequence: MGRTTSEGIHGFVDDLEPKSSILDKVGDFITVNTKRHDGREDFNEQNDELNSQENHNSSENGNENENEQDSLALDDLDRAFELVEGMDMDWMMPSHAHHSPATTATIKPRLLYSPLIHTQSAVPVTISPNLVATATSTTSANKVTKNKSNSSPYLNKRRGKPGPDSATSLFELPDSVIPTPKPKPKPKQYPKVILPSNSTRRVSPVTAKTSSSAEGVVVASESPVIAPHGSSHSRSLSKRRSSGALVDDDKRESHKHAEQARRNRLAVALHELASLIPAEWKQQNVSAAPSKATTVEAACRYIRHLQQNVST
Assay: relative binding free energy (BET-seq); higher = weaker binding
Settings: reference: library average

Sequence | relative binding free energy [kcal/mol]
TTCTGCACGTGTGGCT | 0.15
TAATGCACGTGACGGG | 0.17
ATGGGCACGTGAAGCG | 0.16
GATGCCACGTGGGGTA | -0.2
GTTAGCACGTGTTTTG | 0.11
TTGAGCACGTGTACTT | -0.01
GGTTTCACGTGTCATA | 0.23
TATGTCACGTGTAGAA | 0.13
TTGTCCACGTGATATG | 0.12
GGTTGCACGTGATATT | 0.08
CACGTCACGTGGTGGT | -0.01
GGTGACACGTGGTGTG | -0.04
TACGACACGTGTTGTA | 0.09
AGCAGCACGTGGGTGG | -0.16
CTTGACACGTGAGTGG | 0.17
ATAAACACGTGGTGGC | -0.04
TTTCCCACGTGTGTAT | 0.12
ATGTTCACGTGCGGGT | 0.26
TTCTACACGTGTTTGA | 0.06
TGCTCCACGTGTGTTG | -0.05
ATGTACACGTGTTGTC | 0.01

Sequence | relative binding free energy [kcal/mol]
GATTTCACGTGGGTCT | 0.17
GTAGGCACGTGGTTTT | -0.01
AGGATCACGTGGGTCA | 0
TGGCGCACGTGAGTTG | 0.16
AATTTCACGTGATTGC | 0.31
TGTTACACGTGTCGAG | 0.14
GTTTTCACGTGCGAGG | 0.39
GTGTACACGTGGAGAG | 0.05
TTAGACACGTGGAGTC | 0.02
TGAAGCACGTGTTGAT | -0.07
GAGCGCACGTGGGCGG | -0.2
TGGATCACGTGAAATA | 0.57
TGTGACACGTGCTAGA | -0.07
TAGATCACGTGTCTGT | 0.13
TAGTGCACGTGTTCGG | -0.06
CGTTTCACGTGTGCTA | 0.25
TGTTGCACGTGCACGT | -0.17
TAGGTCACGTGGACGA | 0.22
GATGACACGTGAGTTA | 0.29
TGGGCCACGTGGCATG | -0.12
TGTTGCACGTGTAGAC | 0.05

Sequence | relative binding free energy [kcal/mol]
GCGATCACGTGGTTGT | 0.11
GAAGTCACGTGTATTA | 0.07
TGACTCACGTGGGGGC | 0.06
TATTTCACGTGTAGTG | 0.29
TGGTACACGTGACGTT | 0.2
GTGGGCACGTGTCTTG | -0.02
CTTTACACGTGCGGGT | 0.1
TATTACACGTGATTGC | 0.29
TGATACACGTGGGATT | -0.02
TTCGACACGTGGTGGA | 0.03
AGATCCACGTGAGGGG | 0.17
GGGTGCACGTGCAGGG | 0.04
TAAGTCACGTGGTTGT | 0.05
TGGGCCACGTGAGTAT | 0.18
CTTGGCACGTGTGATG | -0.01
ATATTCACGTGAGGGT | 0.16
TATGTCACGTGTACGG | 0.07
GTAATCACGTGGATAG | 0.31
TTGTTCACGTGATAGA | 0.35
GGGCGCACGTGCATGG | -0.11
GTGGCCACGTGTCTGT | -0.01
